PubChem BioAssay AID596 (National Center for Advancing Translational Sciences (NCATS), 2007)
Among all 71,000 compounds or so, about 1,400 (2%) were called active. This list was built around the results that the source calls inconclusive (neither active nor inactive); the mix of calls is not that of the screen. The call rests on the fitted dose curve; in most records, active means well fitted curve in the direction sought with a large enough effect; inconclusive means small, poorly fitted or top-dose-only effect; inactive means no such curve, though single readings can be large or run the other way. A potency beside an inconclusive call is a rough fit, not a confirmed value.

target: Microtubule-associated protein tau (Homo sapiens) (UniProt P10636); experiment: qHTS Assay for Tau Filament Binding; conditions: recombinant tau filaments, thioflavin S fluorescence, 15 h, filaments grown with octadecylsulfate alongside compound; series mostly up to 57.1 µM;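 further: actives lower thioflavin S fluorescence by blocking filaments or displacing dye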
Source text: NIH Molecular Libraries Screening Centers Network [MLSCN]
NIH Chemical Genomics Center [NCGC]
Assay Provider: Jeffrey A. Kuret, Ohio State University
Tau monomers form filaments in vitro in the presence of anionic detergents or fatty acids. The dye Thioflavine S (ThS) binds to tau filaments and upon binding, increases in fluorescence several fold. Small molecules that displace ThS binding or prevent filament binding are identified by a reduction in ThS fluorescence. This assay used histidine-tagged, recombinant human tau protein containing the products of exons 2, 3, and 10 that was provided by Jeff Kuret, Ohio State University. To form filaments, 1 uM tau was incubated with 30 uM sodium octadecylsulfate (ODS) in reagent buffer (10 uM thioflavine S, 5 mM 1,4-dithioerythreitol (DTT), 100 mM sodium chloride, 10 mM HEPES pH 7.4) for 15 hrs at 37 C.
NCGC Assay Protocol Summary:
Assay Steps. Two uL/well of 2 uM tau in reagent buffer (10 uM thioflavine S, 5 mM DTT, 100 mM sodium chloride, 10 mM HEPES pH 7.4) was dispensed into solid black 1536-well plates. Twenty-three nL compound was transferred to the assay plate after which 2 uL/well of 60 uM ODS in reagent buffer was dispensed for a final assay volume of 4 uL /well. Following 15 hours of incubation at 37 C, fluorescence was detected by an Envision (Perkin Elmer) using 450/8 nm excitation and 510/23 nm emission.
Keywords: NIH Roadmap, MLSCN, MLI, MLSMR, qHTS, NCGC, Alzheimer's disease, Neurofibrillary lesions, tau, tubulin assembly, microtubule stability, cytoskeletal integrity, fibrillization, thioflavin dyes, Amyloidgenic
Potency means the concentration at half of the fitted maximal effect.

Chain of UniProt P10636 (P10636 whole entry, looked up): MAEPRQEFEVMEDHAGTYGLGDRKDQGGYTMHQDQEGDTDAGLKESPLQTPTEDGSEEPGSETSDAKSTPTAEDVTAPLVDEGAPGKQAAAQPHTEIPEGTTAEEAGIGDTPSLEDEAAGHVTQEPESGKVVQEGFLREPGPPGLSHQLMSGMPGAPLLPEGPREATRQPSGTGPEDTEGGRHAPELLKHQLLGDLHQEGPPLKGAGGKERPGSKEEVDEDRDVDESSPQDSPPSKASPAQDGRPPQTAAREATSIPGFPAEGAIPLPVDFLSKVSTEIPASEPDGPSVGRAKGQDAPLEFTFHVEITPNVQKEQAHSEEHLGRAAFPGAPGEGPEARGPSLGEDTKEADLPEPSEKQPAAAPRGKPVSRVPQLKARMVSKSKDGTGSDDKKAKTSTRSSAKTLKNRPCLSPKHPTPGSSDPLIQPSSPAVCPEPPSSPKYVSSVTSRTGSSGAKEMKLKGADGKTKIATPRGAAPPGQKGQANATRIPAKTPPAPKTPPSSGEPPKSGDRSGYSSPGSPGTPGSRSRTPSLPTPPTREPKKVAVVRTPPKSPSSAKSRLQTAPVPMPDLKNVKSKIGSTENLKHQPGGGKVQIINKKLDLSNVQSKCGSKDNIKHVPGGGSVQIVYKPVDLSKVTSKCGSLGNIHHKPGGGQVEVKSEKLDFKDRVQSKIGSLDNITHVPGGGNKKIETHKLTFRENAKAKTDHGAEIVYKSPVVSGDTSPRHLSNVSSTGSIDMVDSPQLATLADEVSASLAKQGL

Compound	Potency
CC(COc1ccccc1)N(CCCl)Cc1ccccc1 (configuration not stated)	inconclusive: 25.1 µM [decreasing]
CCOC(=O)c1c(C)c(C(=O)NCCOC)c(C)n1CC	inactive
COc1ccc(-c2csc(NC(C)=O)n2)cc1OC	inactive
COc1ccc(C)cc1NC(=O)C1CCCN1S(=O)(=O)c1ccc2c(c1)CCC(=O)N2 (configuration not stated)	active: 25.1 µM
COc1ccccc1CCn1c(=O)c(-c2cccs2)nc2cncnc21	inactive
COc1ccc(C(O)c2coc3ccc(O)c(CN(C)C)c23)cc1 (configuration not stated)	inconclusive: 31.6 µM [decreasing]
COc1cccc(NC(=O)c2nnn(CCc3ccccc3)c2N)c1	inactive
COC(=O)/C=C\c1cc(O)ccc1O	inconclusive: 39.8 µM [decreasing]
COc1cc2c(cc1OC)-c1cc(=Nc3c(C)cc(C)cc3C)n(C)c(=O)n1CC2	inactive
COc1ccc(Oc2ncc3nc(-c4cc(F)cc(F)c4)c(=O)n(CCC#N)c3n2)cc1	inconclusive: 31.6 µM [decreasing]
CC(C)Cn1c(N)c(C(=O)NCC2CCCO2)c2nc3ccccc3nc21 (configuration not stated)	inactive
Cc1ccc(-c2cn(S(=O)(=O)c3cccc4nsnc34)nc2N)cc1	active: 15.8 µM
COc1ccc(Nc2nc3ccccc3nc2C)cc1	active: 20 µM
COc1ccc(C(C)=O)c2c(O)cccc12	inconclusive: 25.1 µM [decreasing]
COc1ccc(OC)c(N=Cc2c(O)[nH]c3ccccc23)c1	inconclusive: 0.794 µM [decreasing]
Cc1cc2ccc(=O)oc2cc1OC[C@@H](O)C(C)(C)O	inconclusive: 39.8 µM [decreasing]
COc1ccc2[nH]cc(CCNc3nc(-c4ccoc4)nc4ccccc34)c2c1	active: 3.98 µM
FC(F)(F)c1ccccc1-n1ccnc1	inconclusive: 39.8 µM [decreasing]
COc1cccc(-c2oc3ccccc3c(=O)c2O)c1	inconclusive: 39.8 µM [decreasing]
Cc1cc(C)c(N2CCN(S(=O)(=O)N3CCCCCC3)CC2)c(C)c1	inconclusive: 31.6 µM [decreasing]
CC(C)NC[C@@H](O)COc1ccc(CCOCC2CC2)cc1	inconclusive: 39.8 µM [decreasing]

Compound	Potency
CCC(CC)COC(=O)C(C#N)c1nc2ccccc2nc1N1CCN(CC)CC1 (configuration not stated)	active: 1.26 µM
CCN(CCCNC(=O)CCc1nc(-c2ccc(OC)cc2)no1)c1cccc(C)c1	inconclusive: 25.1 µM [decreasing]
CC(OC(=O)c1cccc(NS(C)(=O)=O)c1)C(=O)Nc1ccc(N2CCOCC2)cc1 (configuration not stated)	inconclusive: 31.6 µM [decreasing]
COc1ccccc1-c1cc(C(=O)Nc2ccc(F)cc2F)no1	inconclusive: 6.31 µM [decreasing]
CC1CC(C)CN(CCC(=O)Nc2cccc(Cl)c2)C1 (configuration not stated)	active: 20 µM
Cc1ccc(OC[C@H](O)[C@H](C)NC(C)C)c2c1CCC2	inconclusive: 39.8 µM [decreasing]
CCOC(=O)Nc1ccc2c(c1)N(C(=O)CCN(C)C)c1ccccc1S2	inconclusive: 20 µM [decreasing]
COC(=O)c1cc(NCc2c(F)cccc2Cl)ccc1N1CCOCC1	inconclusive: 39.8 µM [decreasing]
Cc1c2c(nc3c(C(=O)NC4CC4)cnn13)CCCC2	inactive
COc1ncc2nc(-c3cc(F)cc(F)c3)c(=O)n(CCC#N)c2n1	inconclusive: 39.8 µM [decreasing]
CC[C@]1(O)C[C@@H]2CN(CCc3c([nH]c4ccccc34)[C@](C(=O)OC)(c3cc4c(cc3OC)N(C)[C@H]3[C@](O)(C(=O)OC)[C@@H](C(=O)OC)[C@@]5(CC)C=CCN6CC[C@@]43[C@@H]65)C2)C1	inconclusive: 39.8 µM [decreasing]
O=C1C(Cl)=C(NC2CCc3ccccc32)C(=O)c2ncccc21 (configuration not stated)	active: 25.1 µM
C=CCSC1=N/C(=C\C=C\c2ccco2)C(=O)S1	active: 10 µM
CCOC(=O)C1CCCN(C(=O)c2cc3nc(-c4cccc(OC)c4)cc(C(F)(F)F)n3n2)C1 (configuration not stated)	inactive
CN1CCc2cc3c(cc2C(=O)Cc2ccc4c(c2C1)OCO4)OCO3	inconclusive: 39.8 µM [decreasing]
COc1ccc(-c2cc(OC)c3c(C)oc(C)c3c(=O)c2)cc1OC	active: 25.1 µM
C[C@H]1C=C2C=C[C@H](C)[C@H](CC[C@@H]3C[C@@H](O)CC(=O)O3)[C@H]2[C@@H](OC(=O)[C@@H](C)CCO)C1	inconclusive: 39.8 µM [decreasing]
O=c1/c(=C/c2ccccn2)sc2nc3ccccc3n12	active: 0.501 µM
C=CCN1CCc2cc(O)c(O)cc2[C@H](c2ccccc2)C1	inconclusive: 39.8 µM [decreasing]
Cc1cc2cc(CNC(=O)c3ccc4c(c3)OCO4)ccc2n1C	inconclusive: 39.8 µM [decreasing]
CC(=O)c1c(N2CCN(Cc3ccccc3)CC2)[nH]c(-c2ccccc2)nc1=S	inconclusive: 3.16 µM [decreasing]

Compound	Potency
CCOC(=O)c1cnc2c(C(F)(F)F)cccc2c1N1CCOCC1	active: 15.8 µM
Cc1ccc(NC(=O)CN(C)S(=O)(=O)c2cccc3nsnc23)cc1Cl	inconclusive: 31.6 µM [decreasing]
COc1ccc(N2CCN(C(=O)CSc3ncccc3-c3nc4ccccc4[nH]3)CC2)cc1	inconclusive: 39.8 µM [decreasing]
Cc1ccc2cc3c(NC(=O)c4ccco4)nn(C)c3nc2c1	inconclusive: 0.0126 µM [decreasing]
COCCN(CCOC)S(=O)(=O)c1ccc(C(=O)Nc2nc(C)c(C(C)=O)s2)cc1	inactive
O=C1c2ccccc2-c2ccc(N(Cc3ccc(Br)cc3)Cc3ccc(Br)cc3)cc21	active: 0.631 µM
CC(=O)C(Sc1nc(N2CCOCC2)nc(N2CCOCC2)n1)C(=O)Nc1ccccc1 (configuration not stated)	inactive
COc1ncc2nc(-c3ccc(F)cc3)c(=O)n(C3CC3)c2n1	inactive
O=C(CN1CCOc2ccccc21)NC1CCCCCCC1	inconclusive: 31.6 µM [decreasing]
CCOC(=O)N1CCc2c(sc3c2C(=O)NC(c2ccc(-c4ccc(Cl)cc4)o2)N3)C1 (configuration not stated)	active: 0.631 µM
O=C1CC(c2ccco2)Cc2nc(Nc3nc(-c4ccccc4)c4ccccc4n3)ncc21 (configuration not stated)	inconclusive: 31.6 µM [decreasing]
O=c1cc(-c2ccccc2O)oc2ccc3ccccc3c12	inconclusive: 39.8 µM [decreasing]
Cc1ccccc1N=C(N)Nc1ccccc1C	inconclusive: 39.8 µM [decreasing]
CCOc1ccccc1OCC(=O)Nc1ccc(S(=O)(=O)Nc2nc(C)cc(C)n2)cc1	inactive
CCCCCCCCCCCCCCCC(=O)NC(C)C	inconclusive: 39.8 µM [decreasing]
CCOC(=O)c1cccc(NC(=O)CSc2nnc(CNc3ccc(C)cc3)n2CC)c1	inactive
CCN(CC)c1ccc(C2CC(=O)NC3=C2C(=O)CC(C)(C)C3)cc1 (configuration not stated)	inactive
Cc1cc(C(=O)CSc2nncs2)c(C)n1-c1ccc2c(c1)OCO2	inactive
Cc1cc(-c2ccccc2)c2c3c(cn2n1)c(=O)n(C)c(=O)n3C	active: 12.6 µM
Cc1cc(N2CCN(c3ccccn3)CC2)n2c(nc3ccccc32)c1C#N	inactive
CCCn1c(CCC(=O)O)ccc1-c1ccc(F)cc1	inconclusive: 25.1 µM [decreasing]

Compound	Potency
CCC(=O)N1c2ccccc2-c2nnc(SC)nc2OC1c1ccc(N(C)C)cc1 (configuration not stated)	active: 25.1 µM
CCCN(C/C=C\I)[C@@H]1CCc2cccc(O)c2C1	inconclusive: 39.8 µM [decreasing]
Cc1ccc(Nc2nc(N)nc(CN3CCN(c4ccccc4F)CC3)n2)cc1	inconclusive: 39.8 µM [decreasing]
CCN(CC)c1ccc(NC(=O)C(C)C)cc1	inactive
CN(C)CCCSc1ccccc1NC(=O)/C=C\c1ccccc1	inconclusive: 39.8 µM [decreasing]
COc1ccccc1-c1nc(NCc2ccccc2)c2ccccc2n1	active: 3.98 µM
CNc1cc(NS(=O)(=O)c2ccc(N)cc2)nc(NC)n1	inconclusive: 10 µM [decreasing]
C=CCn1cnc2c(c1=O)c1nc3ccccc3nc1n2Cc1ccccc1	inconclusive: 3.98 µM [decreasing]
COc1ccc(N2CCC(CNC(=O)Nc3ccc(C)c(C)c3)C2)cc1 (configuration not stated)	inconclusive: 7.94 µM [decreasing]
COc1cc(OC)c(OC)cc1CNc1cc(C)ccc1OC	inconclusive: 39.8 µM [decreasing]
Oc1ccc(Nc2nc(-c3ccc(O)cc3)cs2)cc1	inconclusive: 25.1 µM [decreasing]
C1CCC(Nc2nnnn2C2CCCCC2)CC1	inactive
Cc1ccc2c(c1)nnn2C1CCN(C(=O)c2cccs2)CC1	inactive
Cc1cc2ncc(-c3ccc(Cl)cc3)c(N)n2n1	inactive
Cc1oc(-c2ccc(Cl)cc2)nc1CN1CCC(C(=O)N2CCN(Cc3ccccc3)CC2)CC1	inconclusive: 3.16 µM [decreasing]
CCOC(=O)c1cc2sccc2n1CCCN1C(=O)c2ccccc2C1=O	inconclusive: 39.8 µM [decreasing]
O=C(c1cc2nc(-c3ccco3)cc(C(F)(F)F)n2n1)N1CCc2ccccc2C1	inconclusive: 3.16 µM [decreasing]
Cc1cccc(CCN2CCC(C(=O)c3ccc(NS(C)(=O)=O)cc3)CC2)n1	inconclusive: 39.8 µM [decreasing]
CSc1nc(N)c2ncn([C@H]3O[C@H](COP(=O)(O)OP(=O)(O)O)[C@@H](O)[C@@H]3O)c2n1	inconclusive: 39.8 µM [decreasing]
